Laboratory results reported in PubChem BioAssay AID1508642 (National Center for Advancing Translational Sciences (NCATS), 2021).
The campaign covered roughly 43,000 compounds. About 200 (0.47%) were called active. About 12% were inconclusive and are not listed. Calls follow the shape of the dose curve; as a rule, active = well fitted cell-killing curve with a large enough effect; inconclusive = small, poorly fitted or top-dose-only effect, or effect the other way; inactive = flat fitted curve, though single readings scatter. The list shows a part of the results.

assay: Cell viability qHTS assay in S16 Pmp22-F2sN cells; conditions: S16 Pmp22-F2sN Schwann cells (luciferase reporters placed in the Pmp22 gene) viability, CellTiter-Glo, 24 h; series mostly up to 57.5 µM; activity change, negative = cytotoxicity: at the top concentration; also: nearly all actives have a fitted effect of over 65% in size
Procedure, shortened: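 CellTiter-Glo counter-screen, qHTS, 1536-well. Cells: S16(c9) Pmp22-F2sN, 500-1,000/well in DMEM + 10% FBS. Cpd 23 nL pin transfer, 24 h, 37C/5% CO2. Read: luminescence, CCD imager.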
% is scaled to controls: 0 for no effect and ±100 for the full control effect.

Row | SMILES | activity change, negative = cytotoxicity
1 | O=C(Nc1nc2n(n1)C(c1ccc(F)cc1)C=C(c1ccccc1)N2)c1ccc(Cl)cc1 (stereo not given) | inactive: -2.43%
2 | Cc1ccc(NC(=O)C(Cc2ccccc2)NS(=O)(=O)c2ccc3c(c2)oc(=O)n3C)cc1F (stereo not given) | inactive: -2.11%
3 | COc1cccc2c1cc1c(=O)n(CC(=O)NC3CCCCC3)nc(C)n12 | inactive: 11.7%
4 | COc1cc(C(=O)N2CCN(c3ccc(Nc4ccc(C)cc4)nn3)CC2)cc(OC)c1OC | inactive: -1.17%
5 | Cc1ccc(C(=O)Nc2cccc(OCc3cc(=O)n4c5c(sc4n3)CCCC5)c2)cc1 | inactive: 1.22%
6 | COC(=O)Cn1nc(C)c2c(C)n(-c3ccccc3)nc2c1=O | inactive: 16.9%
7 | COCCCNC(=O)CCC(=O)N1Cc2cccc(OC)c2Oc2ncccc21 | inactive: 0.701%
8 | CNC(=O)C1CCC(Cn2c(=O)c3sccc3n(Cc3ccc(F)cc3)c2=O)CC1 (stereo not given) | inactive: -1.64%
9 | CC1(C(=O)Nc2cccc(Br)c2)Cc2ccccc2C(=O)O1 (stereo not given) | inactive: -7.32%
10 | CC(=O)N1CCCc2cc(S(=O)(=O)N3CCC(C(=O)NC4CCC(C)CC4)CC3)ccc21 (stereo not given) | inactive: -1.06%
11 | CCc1ccc(NC(=O)CSc2nccn2-c2ccc(OC)cc2)cc1 | inactive: -2.26%
12 | Cc1ccccc1OCCSc1nc2ccc(NC(=O)c3ccccc3)cc2s1 | inactive: 2.47%
13 | CCCc1cc(=O)oc2c3c(ccc12)OCN(Cc1ccc(OC)cc1)C3 | inactive: 3.03%
14 | CCn1c(C(=O)NCc2ccccc2C)cc2oc3ccccc3c21 | inactive: -10.2%
15 | O=C(Nc1cccc(C(=O)OCc2cc(=O)n3nc(C4CC4)sc3n2)c1)c1cccc(F)c1 | inactive: 2.82%
16 | CCOC(=O)CSc1ccc2nnc(CCNS(=O)(=O)c3ccccc3)n2n1 | inactive: 5.29%
17 | Cc1ccc(CCNC(=O)C(NS(=O)(=O)c2ccc3c(c2)oc(=O)n3C)C(C)C)cc1 (stereo not given) | inactive: -4.85%
18 | Cc1ccc(N(CC(=O)N2CCN(c3ccccc3F)CC2)S(=O)(=O)c2c(C)noc2C)cc1 | inactive: 2.98%
19 | COc1ccc(NC(=O)CSc2nncn3c2cc2oc(C)cc23)cc1OC | inactive: 14.2%
20 | Cc1ccc(N(CC(=O)Nc2cccc(F)c2)S(=O)(=O)c2cccs2)cc1 | inactive: 10.3%

Row | SMILES | activity change, negative = cytotoxicity
21 | COc1ccc(Cn2ccn(Cc3cccc(C)c3)c(=O)c2=O)cc1 | inactive: 0.627%
22 | COc1cc2c(cc1OC)C(COc1ccc3c(C)cc(=O)oc3c1)N(C(=O)c1cccc(C)c1)CC2 (stereo not given) | inactive: -9.4%
23 | CCOc1ccc(-n2c(SCC(=O)NCC3CCCO3)nc3c([nH]c4ccccc43)c2=O)cc1 (stereo not given) | inactive: 4.98%
24 | O=C(NCCc1ccccc1)c1ccc2c(c1)N(Cc1c(F)cccc1Cl)C(=O)CS2 | inactive: 8.65%
25 | Cn1c(=O)c(=O)n(C)c2cc(S(=O)(=O)N3CCCC3C(=O)Nc3ccccc3F)ccc21 (stereo not given) | inactive: 14.8%
26 | Cc1ccc(NC(=O)c2oc3ccc(S(=O)(=O)N4CCCCCC4)cc3c2C)cc1Cl | inactive: -10.4%
27 | CC(C)CSc1nnc(-c2ccccc2)c(-c2ccccc2)n1 | inactive: -2.69%
28 | Cc1ccc2oc(=O)c3cc(C(=O)Nc4ccc(F)cc4F)sc3c2c1 | inactive: 20.4%
29 | COc1ccc(CCNC(=O)c2ccc(Cn3c(=O)c4ccccc4n(Cc4cc(C)ccc4C)c3=O)cc2)cc1OC | inactive: 3.07%
30 | Cc1cc(C)c2nc(N3CCCC(C(=O)NCc4cccc(Br)c4)C3)sc2c1 (stereo not given) | inactive: 2.27%
31 | Fc1ccc(Nc2nc3ccccc3c3nncn23)c(Cl)c1 | inactive: 9.46%
32 | CCc1ccc(NC(=O)C2CCC(CNS(=O)(=O)c3ccc4c(c3)CC(C)N4C(C)=O)CC2)cc1 (stereo not given) | inactive: -3.95%
33 | COc1ccccc1OCCn1c(NC(=O)c2ccc(Cl)cc2)nc2ccccc21 | inactive: 1.34%
34 | COc1ccc(-c2nc3ccccc3s2)cc1NC(=O)COc1ccccc1C | inactive: 11.5%
35 | COc1ccc(C)c2sc(N(Cc3cccnc3)C(C)=O)nc12 | inactive: 3.31%
36 | Cc1ccc(Cl)cc1NC(=O)CN1C(=O)c2cccc3cccc1c23 | inactive: 9.45%
37 | COc1ccc(C2CC(=O)c3cc(-c4nc(-c5cccc([N+](=O)[O-])c5)cs4)c(=O)n(-c4ccc(C)c(C)c4)c3C2)cc1 (stereo not given) | inactive: 13.2%
38 | O=C(Nc1c(C(=O)N2CCN(c3ccc(F)cc3)CC2)oc2ccccc12)c1c(F)cccc1F | inactive: -4.42%
39 | CCC1CCCCN1CCCNC(=O)CN1C(=O)c2cccnc2Oc2ccc(Cl)cc21 (stereo not given) | inactive: 8.9%
40 | O=C(Cn1cc(SCc2ccc(C(F)(F)F)cc2)c2ccccc21)N1CCCCCC1 | inactive: -21.7%

Row | SMILES | activity change, negative = cytotoxicity
41 | Cc1ccc(NC(=O)CSc2nc(C)c(Cc3ccccc3)c(=O)[nH]2)cc1C | inactive: 3.49%
42 | CCOC(=O)C1(C)C=C(Nc2ccc(Br)cc2)C(=O)N1c1ccccc1 (stereo not given) | inactive: 11.3%
43 | Cc1c(C(=O)N(Cc2ccc(N(C)C)cc2)C2CCS(=O)(=O)C2)oc2ccccc12 (stereo not given) | inactive: 2.94%
44 | COc1ccc(OC)c(C2NC(=O)NC(C)=C2C(=O)Nc2cc(C)cc(C)c2)c1 (stereo not given) | inactive: 3.21%
45 | O=C(c1ccc2c(c1)N(Cc1ccccc1)C(=O)c1ccccc1S2(=O)=O)N1CCN(c2ccccc2)CC1 | inactive: -2.59%
46 | Cc1nn(C(C)C(=O)NC2CCCCC2)c(=O)c2c1sc1ccccc12 (stereo not given) | inactive: 6.78%
47 | COc1ccc(CC(=O)NC2CC(=O)N(c3cccc(F)c3)C2)cc1 (stereo not given) | inactive: 4.14%
48 | Cc1ccc(OCC(=O)Nc2ccc(OCc3cc(=O)n4cccc(C)c4n3)cc2)cc1C | inactive: 9.86%
49 | COc1ccc(CCNC(=O)Cc2c(C)c3c(cc(C)c4c(C)coc43)oc2=O)cc1OC | inactive: 6.89%
50 | CCN(C(=O)C(=O)Nc1ccc2nc3n(c(=O)c2c1)CCCCC3)c1ccc(F)cc1 | inactive: 5.38%
51 | COc1ccc2c(CNCc3ccc(C)o3)c(C(=O)O)n(Cc3ccccc3C)c2c1 | inactive: 0.301%
52 | COc1ccc(CCNC(=O)c2ccc3c(c2)CCN3S(C)(=O)=O)cc1 | inactive: -3.93%
53 | CCC(=O)N1c2ccccc2CC1C(=O)NCc1cccc(C)c1 (stereo not given) | inactive: -0.292%
54 | CCN(CC)CCCNC(=O)Cn1nc(C)n2c(cc3sccc32)c1=O | inactive: 5.87%
55 | Cc1ccccc1-c1nc(CS(=O)CC(=O)N2CCN(c3cc(Cl)ccc3C)CC2)c(C)o1 (stereo not given) | inactive: -21.7%
56 | CCc1ccccc1NC(=O)Cn1ccn(-c2cc(C)cc(C)c2)c(=O)c1=O | inactive: 7.03%
57 | COc1ccc(NC(=O)c2ccc3oc(=O)c(S(=O)(=O)c4ccc(C)cc4)cc3c2)cc1OC | inactive: 5.42%
58 | Cc1nn(S(=O)(=O)c2ccccc2)c(C)c1S(=O)(=O)N1CCC(C)CC1 | inactive: 0.167%
59 | Cc1ccc(C(=O)c2oc3ccccc3c2NC(=O)Cc2coc3cc(C)ccc23)cc1 | inactive: 2.84%
60 | COc1ccc(CCNC(=O)Cn2c(=O)n(-c3ccc(C)c(C)c3)c(=O)c3c(C)c(C)sc32)cc1OC | inactive: -7.17%
